Out of some 44,000 compounds screened, about 340 (0.77%) were called active. Another 5% or so got no clear call; they are omitted. Calls come from the whole dose curve; as a rule, active = well fitted inhibition curve with a large enough effect; inconclusive = small, poorly fitted or top-dose-only effect; inactive = flat fitted curve, though single readings scatter. The list shows a part of the results.
Experiment: Acumen qHTS Assay for Inhibitors of the mTORC1 Signaling Pathway in MEF (Tsc2-/-, p53-/-) Cells: Sytravon;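 note: plate controls were DMSO for no effect and rapamycin for full effect; nearly all actives have a fitted effect of over 50% in size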
Details: phospho-rpS6 immunofluorescence/PI, 24 h; series mostly up to 38.3 µM; activity change, negative = inhibition: at the top concentration
Method in brief: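 Readout is phospho-S6 Alexa 488 signal normalized to PI per well, reported as % active cells with thresholds set from rapamycin (7.5 nM) and DMSO controls. Cells: Tsc2-/-, p53-/- MEFs, 24 hrs compound at 37 C; PI cell number serves as viability.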

Structure (SMILES) | activity change, negative = inhibition
CCc1nc2ccc(C(=O)NCCc3ccc(SC)cc3)cc2nc1CC | inactive: 0.0007%
COC(=O)c1c(SCC(=O)Nc2cccc(C(F)(F)F)c2)[nH]c2ccccc2c1=O | inactive: -0.896%
COc1ccc(NC(=O)C(CC(C)C)NC(=O)C2CCCCC2)c(OC)c1 (stereo not given) | inactive: 1.16%
Cc1cc(S(=O)(=O)Nc2cc3c(cc2N2CCOCC2)n(C)c(=O)n3C)ccc1F | inactive: 1.56%
COc1ccc(NC(=O)C2CCN(C(=O)c3sc4nc[nH]c(=O)c4c3C)CC2)c(OC)c1 | inactive: -7.18%
Cc1cccc(N2CCN(c3nc4ccccc4c4nc(-c5ccccc5)nn34)CC2)c1C | inactive: -6.91%
CC(=O)OCc1cnc(C)c2oc(=O)c(C(=O)Nc3ccc(F)cc3C)cc12 | inactive: 3.56%
CCc1ccccc1N1CC(c2nnc(NC(=O)c3ccco3)s2)CC1=O (stereo not given) | inactive: -9.25%
CCN(CC)S(=O)(=O)c1ccc2c(c1)N(CC(=O)N1CCN(c3cc(Cl)ccc3C)CC1)C(=O)CO2 | inactive: -0.622%
CCOc1ccc(CNC(=O)C2CCN(C3=NS(=O)(=O)C(c4ccc(C)cc4)=C3CC)CC2)cc1 | inactive: -2.61%
COc1cc(NC(=O)c2cc(-c3ccccc3O)no2)cc(OC)c1OC | inactive: 9%
CC(=O)Nc1nonc1-c1nnc(SCC(=O)Nc2ccccc2Cl)n1C | inactive: 0.124%
COc1ccc(C2CC(=O)c3cc(-c4nc(-c5ccc(Cl)cc5)cs4)c(=O)[nH]c3C2)cc1 (stereo not given) | inactive: 1.8%
CC(C)n1c(SCC(=O)c2ccc(F)cc2)nc2c(sc3ccccc32)c1=O | inactive: -4.89%
COc1ccc(CCNC(=O)c2c(Nc3ccccc3C)sc(C(=O)c3ccccc3)c2N)cc1OC | inactive: -3.8%
Cc1cccc2nc(Cn3c(=O)n(-c4ccccc4)c(=O)c4c5c(sc43)CCC5)cc(=O)n12 | inactive: -0.549%
COc1ccccc1OCCCn1c(C2CC(=O)N(c3ccc(F)cc3)C2)nc2ccccc21 (stereo not given) | inactive: -4.93%
CCOc1ccccc1NC(=O)CSc1nnc(CC)c(CC)n1 | inactive: -7.6%
COc1ccc(-c2nn(C)c3sc(C(=O)Nc4cc(OC)c(OC)c(OC)c4)cc23)cc1OC | inactive: -16.9%
CCCN(C(=O)c1c(C)oc2ncn(CC(C)C)c(=O)c12)c1ccccc1C | inactive: 6.16%
CCN1c2ccccc2-c2nc(SCC(=O)Nc3cc(OC)cc(OC)c3)ncc2S1(=O)=O | inactive: -11.3%
CCCOc1ccc(C(=O)Nc2cc(-c3nc4ccccc4[nH]3)ccc2C)cc1 | inactive: 9.32%
COc1cccc(CN2CCCN(Cc3ccc(F)cc3)S2(=O)=O)c1 | inactive: -7.56%
COc1cccc(CNC(=O)c2cc3cc(C)ccc3n2C)c1 | inactive: -6.53%

Structure (SMILES) | activity change, negative = inhibition
Cc1ccc(O)c(NC(=O)C2=CC(c3cccs3)=NS(=O)(=O)N2C)c1 | inactive: -6.3%
Cc1ccccc1OCC(=O)Nc1nnc(SCc2cc(=O)n3cccc(C)c3n2)s1 | inactive: 0.453%
COc1ccc(C)cc1NC(=O)C1CCN(S(=O)(=O)Cc2ccccc2)CC1 | inactive: 3.79%
Cc1c(NC(=O)C(C)(C)C)cccc1-c1nc2ccccc2s1 | inactive: -3.14%
Cc1ccc(-n2nc(C(=O)N3CCN(c4cc(C)ccc4C)CC3)c3c4ccccc4n(C)c3c2=O)cc1 | inactive: -5.34%
CCOc1ccccc1NC(=O)Cn1c(=O)n(-c2ccc(Cl)cc2)c(=O)c2oc3ccccc3c21 | inactive: -0.403%
Cn1cc(S(=O)(=O)N2CCc3ccccc32)cc1C(=O)Nc1ccc(C(F)(F)F)cc1 | inactive: -1.7%
CC1Cc2cc(S(=O)(=O)CCC(=O)Nc3ccc(F)cc3Cl)ccc2N1C(=O)C1CC1 (stereo not given) | inactive: -4.12%
CCN(CC)c1ccc(NC(=O)Cn2cc3c(n2)CCCC3)c(C)c1 | inactive: -14.1%
CCc1ccc(NC(=O)CSc2nc3c([nH]c4ccccc43)c(=O)n2C)cc1 | inactive: 1.05%
Cn1c(=O)n(C)c2cc(N3CCCCC3)c(NC(=O)Nc3ccc(Br)cc3)cc21 | inactive: -18.8%
Cc1ccc(CNC(=O)C2CCCN(c3nn4cc(-c5ccc(C)cc5)nc4s3)C2)cc1 (stereo not given) | inactive: 1.91%
Cc1ccc(-n2c(=O)c3ccc(C(=O)NCc4ccccc4Cl)cc3n(Cc3cccc(F)c3)c2=O)cc1 | inactive: -0.505%
COc1ccc(N2CCN(C(CNC(=O)c3c(F)cccc3F)c3ccc4c(c3)OCO4)CC2)cc1 (stereo not given) | inactive: 1.46%
CCOC(=O)c1cc2c(=O)n3ccccc3nc2n(CC2CCCO2)c1=NC(=O)c1ccccc1OCC (stereo not given) | inactive: -1.21%
CCOc1ccc(-n2cc(-c3ccccc3)c3c(NCc4ccccc4)ncnc32)cc1 | inactive: 6.94%
COC(=O)Cc1c(C)c2ccc3c(c2oc1=O)CN(Cc1ccc(Cl)cc1)CO3 | inactive: -2.82%
COCCn1c(SCc2ccccc2F)nc2c([nH]c3ccccc32)c1=O | inactive: -6.48%
Cc1ccc(NS(=O)(=O)c2cn(C)c(C)n2)c(Br)c1 | inactive: -4.42%
COc1ccc(CNC(=O)C2CCN(S(=O)(=O)N3CCC(C)CC3)CC2)c(OC)c1 | inactive: 1.59%
COc1cc(CN(C(=O)c2ccc(C)cc2)C2CCS(=O)(=O)C2)cc(OC)c1OC (stereo not given) | inactive: 0.628%
Cc1cccc(CNC(=O)c2ccc(Cn3c(SCc4cccc(F)c4)nc4cccnc43)cc2)c1 | inactive: 0%
COc1ccc(NC(=O)CCn2cnnn2)cc1 | inactive: -4.44%
COc1cccc(NC(=O)C2CC(=O)N(c3ccc(Br)cc3)C2)c1 (stereo not given) | inactive: 11.9%

Structure (SMILES) | activity change, negative = inhibition
Cc1ccccc1OCc1nnc(SCc2cc(=O)c3cc(F)ccc3[nH]2)n1C | inactive: 0.566%
Cc1ccc2c(c1)c1c(c(=O)n(Cc3ccccc3)c(=O)n1Cc1cccc(F)c1)n2C | inactive: -6.49%
N#C/C(=C\c1cccc(F)c1)c1nc(-c2cc3ccccc3oc2=O)cs1 | inactive: 1.23%
CCC1CN(CC(=O)NCc2cccc(Br)c2)c2ccccc2S1 (stereo not given) | inactive: -17%
Cc1ccc(S(=O)(=O)c2cn(CC(=O)Nc3ccc4c(c3)OCO4)c3ccc(C)cc3c2=O)cc1 | inactive: -9.95%
COc1ccc(-c2nc3ccccc3o2)cc1NC(=O)c1cc([N+](=O)[O-])ccc1N1CCOCC1 | inactive: -6.61%
COc1ccc(-c2ccc(CCC(=O)O)n2-c2ccccc2C(F)(F)F)cc1 | inactive: -4.32%
CCc1nnc(SCC(=O)Nc2ccc(OC)c(OC)c2)c2cc3occc3n12 | inactive: 0.19%
CCc1ccc(N2CC(C)Cn3c2nc2c3c(=O)n(CC(=O)O)c(=O)n2C)cc1 (stereo not given) | inactive: -0.416%
CCOc1ccc(-c2cc(C)n3nc(C(=O)Nc4ccc(C)c(C)c4)cc3n2)cc1 | inactive: -18.3%
COC(=O)Cc1c(C)nc2nc(NCc3ccc(Br)cc3)[nH]n2c1=O | inactive: -0.744%
CCOC(=O)CN(Cc1ccccc1)C(C(=O)NC1CCCCC1)c1ccccc1 (stereo not given) | inactive: -14.9%
Cc1cccc(C)c1NS(=O)(=O)c1ccc(NS(=O)(=O)c2ccc3c(c2)OCCO3)cc1 | inactive: -5.1%
O=C(Nc1noc2ccccc12)c1ccc(F)cc1 | inactive: 2.55%
CCOC(=O)c1ccc(NC(=O)C2(S(=O)(=O)c3ccc(Cl)cc3)CC2)cc1 | inactive: -17.6%
COc1ccc(CNC(=O)c2cc(=O)c3cc(C)ccc3o2)cc1 | inactive: -11.9%
C=Cc1ccc(COc2ccc3oc(-c4ccccc4)c(C(=O)OCC)c3c2)cc1 | inactive: -9.07%
COc1cccc(CNC(=O)CSC2=Nc3ccccc3C3=NC(C(C)C)C(=O)N23)c1 (stereo not given) | inactive: 4.23%
Cc1ccccc1NC(=O)CCC(=O)N1CC(C)Sc2ccccc21 (stereo not given) | inactive: 0%
Cc1cccc(N2CCN(C(=O)CCS(=O)(=O)c3ccc4c(c3)oc(=O)n4C)CC2)c1C | inactive: -2.71%
CCOC(=O)COc1ccc([N+](=O)[O-])cc1-c1ccnc2cc(-c3ccc(C)cc3)nn12 | inactive: -7.34%
Cc1ccc(C)c(N2CCN(CCCNC(=O)c3ccc4nc(N5CCCCC5)sc4c3)CC2)c1 | inactive: 0.128%
Cc1ccc(-c2nnc(Nc3ccccc3)c3ccccc23)cc1S(=O)(=O)NCc1nc2ccccc2[nH]1 | inactive: -25.7%
COc1ccc(C(=O)N(c2ccc(OC)cc2)S(=O)(=O)c2ccc3c(c2)n(C)c(=O)n3C)cc1 | inactive: 5.32%

Structure (SMILES) | activity change, negative = inhibition
COc1ccccc1C(=O)Nc1cccc(C(=O)OCc2cc(=O)n3nc(C)sc3n2)c1 | inactive: 0%
Cc1c(Cl)cccc1NC(=O)Cn1nnc2sc3c(c2c1=O)CCCC3 | inactive: 0.0252%
O=C(c1cc2ccc3cccnc3c2[nH]1)N1CCN(c2ccc(Cl)cc2)CC1 | inactive: 2.18%
O=C(Nc1cccc(Cl)c1Cl)c1cc(S(=O)(=O)NCCc2ccccc2)ccc1F | inactive: 9.48%
NC(=O)CSc1ncc2c(n1)-c1ccccc1N(Cc1ccc(Cl)cc1)S2(=O)=O | inactive: 5.73%
O=C(CN1C(=O)C2(SCC(=O)N2c2ccccc2)c2ccccc21)NCc1ccccc1 (stereo not given) | inactive: 1.51%
Cc1nn(CC(=O)Nc2cc(F)ccc2F)c(=O)c2cccn12 | inactive: -16.6%
CC(C)(C)c1ccccc1NC(=O)CSc1nc(-c2cccs2)cc(C(F)(F)F)n1 | inactive: -13.2%
Cc1cc(Nc2ccc(Cl)cc2C)nc(-n2nc(C)cc2C)n1 | inactive: 0%
CC(C)c1noc(-c2ccccc2OCC(=O)Nc2ccccc2[N+](=O)[O-])n1 | inactive: -4.63%
O=C(NCc1ccc2c(c1)CCN2C(=O)c1ccc(F)cc1)c1ccco1 | inactive: -2.71%
Cc1c(CNC2CCCCC2)c(C(=O)O)c(C)n1Cc1ccc(F)cc1 | inactive: -4.48%
CCOc1ccc(C(=O)Nc2ccc(-n3nncc3-c3ccccc3)cc2)cc1OCC | inactive: 6.7%
CCC(=O)Nc1ccc2nc3c(=O)n(C)c(=O)n(C)c3nc2c1 | inactive: 2.39%
CCC(NC(=O)Nc1cc(OC)ccc1OC)c1c(-n2cccc2)sc2c1CCN(CC)C2 (stereo not given) | inactive: -3.85%
CCN(C(=O)c1cc2c(=O)n3cccc(C)c3nc2s1)c1ccc(C)c(C)c1 | inactive: -26.2%
COc1cccc(CNC(=O)C2(c3cccs3)CCOCC2)c1 | inactive: 3.01%
Cc1oc2ccc(O)c(CN3CCN(C)CC3)c2c1C(=O)Nc1cccc(C(F)(F)F)c1 | inactive: -7.3%
CCOC(=O)c1c(NC(=O)CSc2cn(CCNC(=O)c3ccccc3OC)c3ccccc23)sc2c1CCC2 | inactive: -5.78%
CC(C)c1nc2n(n1)C1(CCCCC1)[C@@H]1CCCC[C@@H]1N2 | inactive: 0%
CCOc1ccc(-n2c(CC)nc3c(cnn3-c3ccc(Cl)cc3)c2=O)cc1 | inactive: -6.83%
COc1ccc(-c2nc3c4ccccc4n(CC(=O)N4CCN(c5ccc(F)cc5)CC4)c(=O)n3n2)cc1 | inactive: 0.137%
Cc1cccc(Cn2c(C)c(CNC3CCCCCC3)c(C(=O)O)c2C)c1 | inactive: -1.19%

Source: PubChem BioAssay AID493208 (National Center for Advancing Translational Sciences (NCATS), 2011)
